{"source": "the RNAGym collection of RNA variant scans (doi:10.1093/nar/gkz1192)", "parents": {"B1": {"name": "CPEB3 Ribozyme (parent)", "chain": "UAACAGGGGGCCACAGCAGAAGCGUUCACGUCGCAGCCCCUGUCAGAUUCUGGUGAAUCUGCGAAUUCUGCUGUAUAUCUC"}}, "note": "Read counts are not given, so values of variants with three or more changes are uncertain."}
{"variants_of": "B1", "test": "self-cleavage, relative activity (ratio to wild type); higher = more cleavage; in vitro, sequencing", "method_in_brief": "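Relative activity was defined as the cleaved/total read fraction for a variant divided by the same fraction for the unmutated ribozyme. CPEB3 self-cleaving ribozyme libraries were made by rounds of error-prone PCR, barcoded, and transcribed in vitro with T7 RNA polymerase for 5 hours at 37°C, and cleavage ran through transcription plus a 15 min DNase I step before EDTA. Illumina sequencing of template-switched reverse transcripts gave the reads, and DNA sequencing mapped the barcodes. Averages come from three batches, using variants with at least 5 reads.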"}
{"variant": "UAACAGGGGGCCACAGCAGUAACGUUCACGUCGCUGCCCCUGUCAGAUUCUGGUGAAUCUGCGAAUUCUGCUGUAUAUCUC", "note": "[A20U G22A A35U]", "self-cleavage": 0.11}
{"variant": "UAACAGGGGGCCACAGCAGUAGCAUUCACGUCGCAGCCCCCGUCAGAUUCUGGUGUAUCUGCGAAUUCUGCUGUAUAUCUC", "note": "[A20U G24A U41C A56U]", "self-cleavage": 0.07}
{"variant": "UAACAGGGGGCCACAGCAGUAGCGUUUACGUCGCAGCCCCUGUCAGAUUCUGGUGCAUCUGCGAAUUCUGCUGUAUAUCUC", "note": "[A20U C27U A56C]", "self-cleavage": 0.05}
{"variant": "UAACAGGGGGCCACAGCAGUAGCAUCCACGUCGCAGCCCCUGCCAGAUCCUGGUGAAUCUGCGAAUUCCGCUGUAUAUCUC", "note": "[A20U G24A U26C U43C U49C U69C]", "self-cleavage": 0.13}
{"variant": "UAACAGGGGGCCACAGCAGUAGCAUUCACGUCGCAGCCCCAGUCAGAUUCUGGUGAAUCUGCGAAUUCCGCUGUAUAUCUC", "note": "[A20U G24A U41A U69C]", "self-cleavage": 0.1}
{"variant": "UAACAGGGGGCCACAGCAGUAGUGUUCACGCCGCAGCCCCUGUCAGAUUCUGGUGAAUCUGCGAAUUCUGCUGUAUAUCUC", "note": "[A20U C23U U31C]", "self-cleavage": 0.16}
{"variant": "UAACAGGGGGCCACAGCAGUAGCGUUCACGUAGCAGCCCCUGUCGGAUUCUGGUGGGUCUGCGAAUUCUGCUGUAUAUCUC", "note": "[A20U C32A A45G A56G A57G]", "self-cleavage": 0.16}
{"variant": "UAACAGGGGGCCACAGCAGUAGCGUUCACGUCGCAGCCCCUAUCAGAUUCUGGUGAAUCUGCGAAUUCUGCUGUAUUUCUC", "note": "[A20U G42A A77U]", "self-cleavage": 0.16}
{"variant": "UAACAGGGGGCCACAGCAGUAGCGUUCACAUCGCAGCCCCUGUCGGAUUCUGGUGAAUCUGCGAACUCUGCUGUGUAUCUC", "note": "[A20U G30A A45G U66C A75G]", "self-cleavage": 0.06}
{"variant": "UAACAGGGGGCCACAGCAGUAGCGUUCACGUCUCUGCCCCUGUCAGAUUCUGGUGAAUCAGCGAAUUCAGCUGUAUUUCUC", "note": "[A20U G33U A35U U60A U69A A77U]", "self-cleavage": 0.07}
{"variant": "UAACAGGGGGCCACAGCAGUAGCGUUCACGUCGCAGUCCCAGUCAGAUUCUGGUGAAUCUGGGAAUUCUGCUGGAUAUCUC", "note": "[A20U C37U U41A C62G U74G]", "self-cleavage": 0.18}
{"variant": "UAACAGGGGGCCACAGCAGUAUCGUUCACGUCGCAGCCCCUGUCAGAUUCUGGUGAAUCUGCGAUUUCUGCUGCUUAUCUC", "note": "[A20U G22U A65U U74C A75U]", "self-cleavage": 0.12}
{"variant": "UAACAGGGGGCCACAGCAGUAGUGUUCACGUCGCAGCCCCUGUCAGAUUCUGGUGAAUCUGCGAACUCAGCAGUAUAUCUC", "note": "[A20U C23U U66C U69A U72A]", "self-cleavage": 0.18}
{"variant": "UAACAGGGGGCCACAGCAGUAACGUUCACGUCGCAGCCACUGUCAGAUUCUGGUGAAUCAGCGAAUUCUGCUGUAUAUCUC", "note": "[A20U G22A C39A U60A]", "self-cleavage": 0.1}
{"variant": "UAACAGGGGGCCACAGCAGUAGCGUUCACGUCGCAGCCCCUGUCAGAUUCUGGUGAAUCUGAGAAUUCGGCUAUAUAUCUC", "note": "[A20U C62A U69G G73A]", "self-cleavage": 0.08}
{"variant": "UAACAGGGGGCCACAGCAGUAGCGAUCACGUCACAGCCCCUGUCAGAUUCUGGUGAAUCUGCGAGUUCUGCUGUAUAUCUC", "note": "[A20U U25A G33A A65G]", "self-cleavage": 0.08}
{"variant": "UAACAGGGGGCCACAGCAGUAGCGUUCACGUCUCAGCCCCUGUCAGAUUCUGGUGAAUCUGCGAACUCUGCUGUAUAUCUC", "note": "[A20U G33U U66C]", "self-cleavage": 0.04}
{"variant": "UAACAGGGGGCCACAGCAGUAGCGUUCACGUCGCAGCCCGUGUCAGAUUCUGGUGAAUCUGCGUAUUCUGCUGAAUAUCUC", "note": "[A20U C40G A64U U74A]", "self-cleavage": 0.27}
{"variant": "UAACAGGGGGCCACAGCAGUAGCGUUCACGUCACAGCCCCUGUCAGAUUCUGGUGAAUCUGUGAAUUCUGCUGUAUAUCUC", "note": "[A20U G33A C62U]", "self-cleavage": 0.05}
{"variant": "UAACAGGGGGCCACAGCAGUAGCGUUCACAUCGCAGCCCCUGUCAGAUUCUGGUGAAUCUGCGGAUUCUGCUGUAUAUCUC", "note": "[A20U G30A A64G]", "self-cleavage": 0.18}
{"variant": "UAACAGGGGGCCACAGCAGUAGCGUUCACGUCACCGCCCCUGUCAGAUUCUGGUGAAUCUGCGUAUUCUGCUGUAUAUCUC", "note": "[A20U G33A A35C A64U]", "self-cleavage": 0.15}
{"variant": "UAACAGGGGGCCACAGCAGUAGCGUUCACGUCACAGCCCCAGUCAGAUUCUGGUGAAUCUGCGAAUUCUGCUGUAUAUCUC", "note": "[A20U G33A U41A]", "self-cleavage": 0.11}
{"variant": "UAACAGGGGGCCACAGCAGUAGCGUUCAUGUCGCAGCCCCUGUCAGAUUCUGGUGAAUCUGCGAAUUCUGCCGUAUAUCCC", "note": "[A20U C29U U72C U80C]", "self-cleavage": 0.06}
{"variant": "UAACAGGGGGCCACAGCAGUAGCGUUCACGUCGGAGCCCCCGUCAGAUUCUGGUGUAUCUGCGAAUUCUGCUGUACAUCUC", "note": "[A20U C34G U41C A56U U76C]", "self-cleavage": 0.07}
{"variant": "UAACAGGGGGCCACAGCAGUAGCGUUCACGUCGCAGACACUGUCAGAUUCUGGUGAAUCUGCGAAUCCUGCUGUAUAUCUC", "note": "[A20U C37A C39A U67C]", "self-cleavage": 0.09}
{"variant": "UAACAGGGGGCCACAGCAGUAGCAUUCACGUCGCAGCCCCUGUCAGAUUCUGGCGAAUCUGCGAGUUCUGCUGUAUAUCUC", "note": "[A20U G24A U54C A65G]", "self-cleavage": 0.12}
{"variant": "UAACAGGGGGCCACAGCAGUAGCGUUUACGUCGCAGCCCCUGUCAGAUUCUGGUGAAUCAGCGAAUCCUGCUGCAUAUCUC", "note": "[A20U C27U U60A U67C U74C]", "self-cleavage": 0.35}
{"variant": "UAACAGGGGGCCACAGCAGUAGCGUUCACGUCGCAGGCCCUGUCAGAUACUGGUGAAUCUGCGAAUUCUGCUGUACAUCUC", "note": "[A20U C37G U49A U76C]", "self-cleavage": 0.15}
{"variant": "UAACAGGGGGCCACAGCAGUAGCAUUCGCGUCGCAGCCCCUGCCAGAUUCUGGUGAAUCUGCGAACUCUGCUGUAUAUCUC", "note": "[A20U G24A A28G U43C U66C]", "self-cleavage": 0.11}
{"variant": "UAACAGGGGGCCACAGCAGUAGCGUUCACGUCGCAGCCCUUGUCAGAUUCUAGUGAAUCUGCGAAUUCUGCUGUAUAUCUC", "note": "[A20U C40U G52A]", "self-cleavage": 0.42}
{"variant": "UAACAGGGGGCCACAGCAGUAGCGUUCACGUCGUAGCCCCUGUUAGAUUCUGGGGAAUCUGCGUGUUCUGCUGUAUAUCUC", "note": "[A20U C34U C44U U54G A64U A65G]", "self-cleavage": 0.27}
{"variant": "UAACAGGGGGCCACAGCAGUAGCGUUCACGUCUCAGCCCCUGUCAGAUUCUGGUGAAUCUGCGAAUCCUGCAGUAUAUCUC", "note": "[A20U G33U U67C U72A]", "self-cleavage": 0.09}
{"variant": "UAACAGGGGGCCACAGCAGUAGCGAUCACGUCGCAGCCCCUGUCAAAUCCUGGUGAAUCUGCGUAUUCUGCUGUAUAUCUC", "note": "[A20U U25A G46A U49C A64U]", "self-cleavage": 0.05}
{"variant": "UAACAGGGGGCCACAGCAGUAACGUUCACGUCGCAGCCCCUGUCAGGUUCUGGUGAAUCUGCGAAUUCUGCUGUAUAUCUC", "note": "[A20U G22A A47G]", "self-cleavage": 0.06}
